Out of some 360,000 compounds screened, about 6,000 (1.7%) were called active. The shares of active, inactive and inconclusive entries below differ from those in the screen. Calls follow the shape of the dose curve; as a rule, active = well fitted cell-killing curve with a large enough effect; inconclusive = small, poorly fitted or top-dose-only effect, or effect the other way; inactive = flat fitted curve, though single readings scatter. Potencies of inconclusive entries are left out as doubtful fits.
Assay: qHTS for induction of synthetic lethality in tumor cells producing 2HG: qHTS for the HT-1080-NT fibrosarcoma cell line;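 also: NT is the 2HG producing partner of a matched IDH1 knockdown line; nearly all actives have a fitted effect of over 55% in size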;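 as to activity, negative = less viability: 0% = DMSO-treated cells and -100% = media-only wells without cells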
Conditions: HT-1080-NT fibrosarcoma viability, CellTiter-Glo ATP luminescence, 48 h; activity, negative = less viability: at 46.1 µM (top of the series) unless noted
Outline: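 Read-out is CellTiter-Glo luminescence after 10 minutes at room temperature, following 48 hours' compound treatment of HT-1080-NT cells (750 cells/well, RPMI, 5% FBS, 37 degrees C).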
Potency is read from the fitted curve at half-maximal effect; tags tell the direction and shape of the fitted curve.

SMILES	Potency	activity, negative = less viability
COc1ccc(Cn2c(-c3ccc(C)cc3)nc3c(c(=O)c4ccccc4n3C)c2=O)cc1	inconclusive [cytotoxic, single point]	–
COc1ccc(C(=O)c2sc(Nc3cccc(OC)c3)c(C(=O)Nc3cccc(C)c3C)c2N)cc1	inconclusive [cytotoxic, single point]	–
CC1(C(=O)NS(=O)(=O)C2CC2)CCCN(C(=O)c2cccnc2Oc2ccccc2)C1 (stereo unspecified)	inconclusive [rising, partial curve]	–
CCN(CC)S(=O)(=O)c1cc(OC)ccc1N=Nc1ccc(O)c2ncccc12	inconclusive [cytotoxic, full curve, poor fit]	–
COc1cccc(CNCC(O)(c2ccc(Cl)cc2)c2ccc(Cl)cc2)c1	inconclusive [cytotoxic, partial curve]	–
CC1c2ccccc2SC(CCCN(C)C)c2ccccc21 (stereo unspecified)	inconclusive [cytotoxic, single point]	–
N#CCCN(NC(=O)OCc1ccccc1)C(=O)OCc1ccccc1	–	inconclusive: 31.6%
COc1ccc(-c2nnc3c4ccccc4c(C)nn23)cc1S(=O)(=O)N1CCN(CCO)CC1	inconclusive [cytotoxic, single point]	–
CN(C)NC(=S)Nc1ccc(Cl)cc1	inconclusive [cytotoxic, single point]	–
CN(C)S(=O)(=O)c1cccc(NC(=O)c2cccc(NS(=O)(=O)c3ccccc3)c2)c1	inconclusive [cytotoxic, single point]	–
COC(=O)c1ccc(/C=N/Nc2nc(N3CCCCC3)nc(N3CCCCC3)n2)cc1	–	inconclusive: 30.6%
COCCOC(=O)N/C=C\c1nc2ccccc2c(=O)[nH]1	inconclusive [cytotoxic, single point]	–
Cc1ccc2cc(C)c(N3CCC(C)CC3)nc2c1	inconclusive [rising, partial curve]	–
COc1ccc(CNCCC(c2ccccc2)c2ccc(OC(C)C)cc2)cc1OC (stereo unspecified)	active: 20.6 µM	–
O=C(NCCc1ccccc1)c1ccc2c(c1)S(=O)(=O)c1cc(Cl)ccc1C2=O	inactive	–
CCCCOc1ccc(Nc2cc(Cl)ccc2C(=O)O)cn1	inactive	–
CC(C)Cn1c(SCC(=O)N(C)c2c(N)n(Cc3ccccc3)c(=O)[nH]c2=O)nc2ccccc21	inactive	–
Cc1ccc(S(=O)(=O)N2CCC(C(=O)Nc3ccc(S(=O)(=O)N4CCOCC4)cc3)CC2)cc1	inactive	–
O=C(Cn1cnc2ccccc2c1=O)Nc1nnc(SCc2ccc(Cl)cc2)s1	inconclusive [rising, single point]	–
O=[N+]([O-])c1cc(Br)c(O)c(/C=N/Nc2nnnn2-c2cccc3ccccc23)c1	inconclusive [cytotoxic, partial curve]	–
N#C/C(=C\c1cccs1)C(=O)c1ccccc1Cl	inconclusive [cytotoxic, single point]	–
Cc1ccc(NC(=O)/C(=C/c2cccs2)NC(=O)c2ccco2)cc1	inactive	–
COC(=O)[C@@]1(Cc2ccc(F)cc2)[C@H]2c3cc(C(=O)N(C)C)n(CCc4c[nH]c5ccc(O)cc45)c3C[C@H]2CN1C(=O)c1ccccc1	inactive	–
N=c1ccn(Cc2c(Cl)cccc2Cl)cc1	inconclusive [cytotoxic, partial curve]	–

SMILES	Potency	activity, negative = less viability
CC(NNC(=S)N1CCCCCC1)c1ccc2ccccc2n1 (stereo unspecified)	active: 23.1 µM	–
Cc1nc2ccccn2c1C(=O)CSc1ccccc1	inconclusive [cytotoxic, single point]	–
Cc1cc(Nc2ccc3ccccc3c2)n2ncnc2n1	inconclusive [cytotoxic, single point]	–
CCCCNC(=O)Cc1coc2ccc3ccccc3c12	inactive	–
CCCNC(=O)c1ccc(CN2CCc3ccccc3C2)cc1	inactive	–
Clc1ccc(SCCOCCN2CCc3ccccc3C2)cc1	active: 23.1 µM	–
Cc1ccc(-c2nnc3n2N=C(c2ccccc2Br)CS3)cc1	inconclusive [cytotoxic, partial curve]	–
CCOc1ccc(NCc2nnc(SCC(=O)Nc3cc(C)on3)n2-c2ccccc2OC)cc1	inconclusive [cytotoxic, single point]	–
CCCNC(=O)c1cc(C2CCCN(C(=O)c3ccc4ccccc4c3)C2)on1 (stereo unspecified)	inactive	–
O=c1c2ccccc2nc(SCc2cn3ccsc3n2)n1-c1ccc(F)cc1	inconclusive [cytotoxic, partial curve]	–
c1ccc(N2CCN(c3nc4ccccc4n4cnnc34)CC2)cc1	inactive	–
Clc1ccc2c(c1)C1=C(C(c3ccncc3)O2)C(c2ccc(Br)cc2)n2ncnc2N1 (stereo unspecified)	inconclusive [cytotoxic, single point]	–
COC(=O)c1ccc(N=Cc2c(C(F)(F)F)[nH]n(C)c2=O)cc1	inactive	–
Cc1ccc(S(=O)(=O)Nc2ccc3c(c2)C(=O)N([C@H](C)CO)C[C@H](C)[C@@H](CN(C)Cc2ccc(-c4ccccc4)cc2)O3)cc1	inconclusive [cytotoxic, single point]	–
Cc1ccc(NS(=O)(=O)c2ccc(Cl)c(N=Nc3c(O)[nH]c(=O)[nH]c3=O)c2)cc1Cl	inactive	–
COc1ccc(NC(=O)c2nnn(Cc3cccc(F)c3)c2N)c(OC)c1	inconclusive [cytotoxic, full curve]	–
CC(C)Cc1nc(Nc2ccccc2C#N)c2nnn(Cc3ccccc3)c2n1	inconclusive [cytotoxic, partial curve]	–
Oc1ccc(Cn2ccnc2)c2cccnc12	inconclusive [cytotoxic, single point]	–
Cc1ccc(S(=O)(=O)CC(=O)NC2CC2)cc1	inactive	–
Cc1ccc(NC(=O)CSc2ccc(-c3ccccn3)nn2)c(C)c1	inactive	–
C[C@]12CC[C@@H]3c4ccc(OS(=O)(=O)O)cc4CC[C@H]3[C@@H]1CCC2=O	–	inconclusive: 49%
Cc1ccc(-c2nc(NCc3ccco3)c3ccccc3n2)cc1	inconclusive [cytotoxic, single point]	–
O=C(Nc1cccn(Cc2c(Cl)cccc2Cl)c1=O)c1ccc(Cl)cc1Cl	inconclusive [cytotoxic, single point]	–
COC(=O)c1c(C)n(-c2ccccc2)c2ccc(O)cc12	active: 11.2 µM	–

SMILES	Potency	activity, negative = less viability
CCn1ccnc1CN1CCc2c([nH]c3ccccc23)C1CC(C)C (stereo unspecified)	inconclusive [cytotoxic, single point]	–
Cc1cccc[n+]1C1C(c2ccccc2)C(C#N)=C(C(=C=[N-])C#N)NC1(O)C1CC1 (stereo unspecified)	inactive	–
COc1ccc2nc(NNC(=O)c3cc(=O)c4ccccc4o3)sc2c1	inactive	–
CNCc1cc(Br)c(OCC(=O)Nc2ccccc2OC)c(OC)c1	inconclusive [cytotoxic, partial curve]	–
Cc1nc(NC(=O)c2csc3ccccc23)sc1C	inconclusive [cytotoxic, single point]	–
O=C(NCCCN1CCOCC1)c1cc2c([nH]c3ccccc32)c(-c2cccc(Br)c2)n1	inconclusive [cytotoxic, single point]	–
Cc1coc2cc3oc(=O)c(CCC(=O)N[C@@H](CCCNC(N)=O)C(=O)O)c(C)c3cc12	inactive	–
Cc1onc(-c2ccccc2)c1C(=O)Nc1cc(C(F)(F)F)ccc1N1CCOCC1	inconclusive [cytotoxic, full curve]	–
COc1ccc(C=O)cc1COc1ccc([N+](=O)[O-])c(C)c1	inconclusive [cytotoxic, partial curve]	–
N#CC1C(=O)c2ccccc2C1c1ccccc1 (stereo unspecified)	inconclusive [cytotoxic, single point]	–
Cc1ccc(-c2nnn(CC(=O)N(c3cccc(F)c3)C(C(=O)NC(C)(C)C)c3ccco3)n2)o1 (stereo unspecified)	–	inconclusive: -31.4% [cytotoxic]
O=C1CCc2cc(S(=O)(=O)NCCC(=O)N3CCN(c4cccc(Cl)c4)CC3)ccc2N1	–	inconclusive: -30.2% [cytotoxic]
CN1CCN(C(CNS(=O)(=O)c2ccc([N+](=O)[O-])cc2)c2ccc(F)cc2)CC1 (stereo unspecified)	inactive	–
Cc1cc(S(=O)(=O)Nc2ccc(C(=O)NCCCN3CCOCC3)cc2)ccc1F	inactive	–
c1ccc(C(c2ccccc2)c2noc(CN3CCN(C4CCCC4)CC3)n2)cc1	inactive	–
Nc1[nH]c(C(=O)c2ccccc2)c(-c2ccccc2Br)c1C(=O)NCCc1c[nH]c2ccccc12	inconclusive [cytotoxic, single point]	–
C[C@H](CO)N1C[C@H](C)[C@H](CN(C)C(=O)Nc2ccc(N3CCN(C)CC3)cc2)OCc2cnnn2CCCC1=O	inactive	–
Brc1ccc(-c2nc(N/N=C/c3cccnc3)c3ccccc3n2)cc1	inconclusive [cytotoxic, full curve]	–
O=Cc1cn(CC(=O)Nc2ccccc2)c2ccccc12	inactive	–
COc1ccc(OCc2cccc(C(=O)O)c2)cc1	inconclusive [cytotoxic, single point]	–
Cc1cc(NC(=O)CSc2nc(C(C)C)nc3ccccc23)no1	inconclusive [cytotoxic, single point]	–
CCOc1ccccc1C1CC(=O)Nc2cc3c(cc21)OCCO3 (stereo unspecified)	inconclusive [cytotoxic, full curve]	–
COc1cc(C(=O)NCCN2C(=O)S/C(=C\c3ccc(F)cc3)C2=O)ccc1OCC(=O)N1CCOCC1	inconclusive [rising, single point]	–

— PubChem BioAssay AID686970 (National Center for Advancing Translational Sciences (NCATS), 2013)
